# From the supplement of paper PMC3334620
# Whole data set: some 33,000 sequences, median “E-score (-0.5 to 0.5)” near -0.036, cut for the highest 2% near 0.37. This is one part of the list.
# Target: T1, Yer064c (UniProt P40041)
# T1 sequence: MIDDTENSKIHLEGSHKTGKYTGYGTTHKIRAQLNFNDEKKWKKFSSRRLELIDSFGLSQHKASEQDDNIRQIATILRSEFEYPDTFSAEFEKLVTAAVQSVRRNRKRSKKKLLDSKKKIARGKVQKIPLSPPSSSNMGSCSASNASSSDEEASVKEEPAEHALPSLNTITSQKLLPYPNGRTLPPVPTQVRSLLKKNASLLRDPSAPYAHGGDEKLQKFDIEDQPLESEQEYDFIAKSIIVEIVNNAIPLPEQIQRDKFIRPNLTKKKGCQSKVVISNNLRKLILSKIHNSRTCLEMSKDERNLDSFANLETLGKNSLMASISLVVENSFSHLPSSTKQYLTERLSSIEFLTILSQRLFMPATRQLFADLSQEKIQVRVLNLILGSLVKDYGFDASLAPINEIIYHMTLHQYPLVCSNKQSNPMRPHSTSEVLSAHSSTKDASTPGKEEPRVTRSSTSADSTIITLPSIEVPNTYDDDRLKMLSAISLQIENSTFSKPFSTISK
# Test: PBM E-score (8-mer binding enrichment) (E-score (-0.5 to 0.5)); higher = stronger / more preferred TF binding; most listed sequences are background and not binding sites
# Settings: protein concentration: 200 nM; construct: GST-full length
# In short: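 For each ungapped eight-base word taken together with its reverse complement, the Universal PBM Analysis Suite assigned an E-score. Binding data came from GST-tagged yeast transcription factors, applied at about 100-200 nM, on universal all-10-mer Agilent arrays made double-stranded by primer extension. Fluorescent anti-GST marked bound protein, and scans were normalised with masliner.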
row,Sequence,PBM E-score
1,CCTGTCCC,-0.203
2,AATGGTGT,0.0349
3,TATGCCGA,0.0735
4,GATTAAAC,0.288
5,AGAACCTG,-0.15
6,ATGTCGTA,0.0166
7,CGTGTCCA,-0.15
8,TAACGATA,0.123
9,AGGGACTC,0.242
10,AGGGCGGA,-0.229
11,ACCAAGTG,-0.0779
12,CCGCTTCC,-0.179
13,ACAGTTGC,-0.163
14,ATTTACCA,0.0521
15,CCACTTAA,0.0279
16,AGGTGCTC,-0.347
17,CATCTACG,0.104
18,AAGAGATC,-0.185
19,AGCCCCAC,-0.227
20,AAACTCGC,-0.168
21,ACAGTGGC,-0.154
22,CGTTCAAG,-0.0964
23,GGGCTGGA,-0.21
24,GCAGAGGA,-0.194
25,AACACAGT,0.0823

row,Sequence,PBM E-score
1,TCCCATAA,-0.127
2,TACCTCGA,0.0549
3,CAGTAACG,-0.0332
4,GAGAGTAC,0.134
5,GATACCGA,0.0724
6,GGATACCA,0.0154
7,AAGGTCGT,-0.0241
8,AGGGAGTC,0.44
9,AAAGCCTC,-0.184
10,ATAAATCA,0.277
11,AGTGGAGC,-0.0359
12,AGGTGGCA,0.00435
13,CGGAGCTA,-0.236
14,CCGGTGAA,0.00111
15,TATGCCAA,-0.101
16,AACTTGAC,0.212
17,CTACGGAA,0.0329
18,GCGCCGAC,-0.0263
19,CCCTGCAC,-0.0944
20,GCATTAGA,0.0794
21,GGCAACCA,-0.0925
22,AGATGAAG,-0.126
23,GCCTGTTA,-0.211
24,ACTCATGG,0.34
25,ATTTCTTC,-0.058

row,Sequence,PBM E-score
1,AGGGGCTG,-0.165
2,CCATTGCA,0.0942
3,ACCGACCG,-0.184
4,AGTTCTAC,-0.0918
5,CAATTGAC,0.125
6,CTCGAACA,0.186
7,ACTTACTG,0.201
8,CCGTAGCC,-0.188
9,CCACCGCC,-0.255
10,GAGACTCA,0.467
11,ATTTGGCA,-0.0964
12,CTGCTTAA,-0.0451
13,CTGCCCAG,-0.139
14,CCAGTTAG,0.0237
15,ACAACGTG,-0.0777
16,CTGAAGTA,0.203
17,CAGCTAAG,-0.0893
18,CGGCAACG,-0.0749
19,GGCTAGAC,-0.135
20,CTATCCTA,-0.0287
21,CGGTAATC,0.237
22,GCAAATCC,-0.126
23,AGCATCCA,-0.205
24,CTCCACAC,-0.0862
25,ATGGTTAG,0.116

row,Sequence,PBM E-score
1,AACCGGAG,-0.0933
2,GGGGAGCA,-0.168
3,CTGCAAAG,0.0505
4,GCCGCCAC,-0.161
5,CGTTAGCC,0.0926
6,TAAGCGGA,0.0766
7,CAGAACTA,-0.086
8,CCCAACCC,-0.151
9,ACGCCACT,-0.186
10,ATCCAATA,-0.0774
11,AGTGTACG,0.0235
12,AGCTACCG,-0.148
13,CCGTTCTC,-0.298
14,CGCAGCCG,-0.16
15,AAATAGGA,0.0809
16,AACTGCTG,-0.205
17,AGAGGGTA,-0.0838
18,CACTGACG,-0.077
19,GATAATTA,0.0577
20,CGCTCAAA,-0.0349
21,CCCCGGAG,-0.24
22,AATTCTCT,-0.285
23,GTCACAAA,0.261
24,GCCGCTCC,-0.231
25,ACACCTGT,0.0517

row,Sequence,PBM E-score
1,CAGTTTGA,0.113
2,CGCTGCAA,0.0297
3,AAGGCGCT,-0.208
4,TATAAACA,0.165
5,TATGTGCA,-0.113
6,CGCTGACG,-0.253
7,AATCTGCC,-0.0737
8,ACGAAACA,-0.0814
9,GTCTCCGA,0.0595
10,ACTGGCCA,0.147
11,AAATTAAA,0.119
12,GTCTGCCA,-0.0597
13,AACGTCTT,-0.113
14,GTACCCTA,-0.129
15,GCATCAGA,0.122
16,ACTAAACT,0.242
17,CGTTTAAC,0.108
18,AATTGGCT,0.0484
19,ATGACAAA,-0.03
20,CGAGCTAG,0.00121
21,AAGCCACC,-0.116
22,CCTGAGAG,-0.0818
23,ACCCGTTC,-0.184
24,AACCGCAT,0.0875
25,AGTTCGCA,-0.0258

row,Sequence,PBM E-score
1,ATCGCGAC,0.149
2,CCCAACGG,-0.0813
3,ATCTAACC,-0.0261
4,AGAGGACA,-0.186
5,GTGTCATA,0.112
6,CGAAGGCG,-0.17
7,GACAGGCC,-0.241
8,CGAAAGGC,-0.281
9,GCGGCAGA,-0.176
10,AAAATTGA,0.0494
11,AGTTTGCC,-0.178
12,CTACTGTA,-0.00156
13,TGGTCTAA,-0.00513
14,CCCTACCA,-0.127
15,CGCCGGTC,-0.19
16,CCGAGCCC,-0.0288
17,ATAGTTAA,0.0478
18,GACAGCTC,-0.216
19,GTTGAGCA,-0.148
20,GAAAGGAC,0.00876
21,GATTGTGA,0.176
22,CGAAGCGC,-0.115
23,TACTCTCA,0.0897
24,GGGACATA,-0.146
25,CCTTGTCG,-0.155

row,Sequence,PBM E-score
1,ATCTCATG,0.167
2,AGGGCTCC,-0.31
3,AACTCAAG,0.116
4,CGAAAGCG,-0.184
5,AGTTGGTA,0.109
6,ACTTGGCG,-0.0875
7,GCGACCCC,-0.237
8,AAGAATAG,0.0215
9,AATGGAAC,0.0414
10,ACCAGAGC,0.0188
11,CTACATGC,-0.0926
12,AAGGAGCT,-0.0608
13,GTCGTATA,0.226
14,ACGGCAAG,-0.0123
15,ATCTGGCA,-0.118
16,CCAGACGA,-0.0439
17,ACTTGGAA,0.0773
18,AATGCCAC,-0.0486
19,AACAGACG,-0.277
20,AAACTTCG,-0.259
21,GCAAAGAC,0.081
22,GCATTCAC,-0.0705
